# Test results as given in PMC4336329 (PLoS ONE, 2015).
# The whole screen tested about 310,000 compounds, of which about 14,000 (4.5%) showed an effect of 50% or more. The effect is printed as a negative number. The list shows a part of the results.
# Target: human ether-à-go-go-related gene (hERG) potassium channel (human, UniProt Q12809)
# Assay: primary screen, population patch clamp on CHO cells stably expressing hERG
# 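Also: peak tail current of the secondary pulse compared with the same well before compound.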
# Sequence of human ether-à-go-go-related gene (hERG) potassium channel (Q12809 whole entry, looked up): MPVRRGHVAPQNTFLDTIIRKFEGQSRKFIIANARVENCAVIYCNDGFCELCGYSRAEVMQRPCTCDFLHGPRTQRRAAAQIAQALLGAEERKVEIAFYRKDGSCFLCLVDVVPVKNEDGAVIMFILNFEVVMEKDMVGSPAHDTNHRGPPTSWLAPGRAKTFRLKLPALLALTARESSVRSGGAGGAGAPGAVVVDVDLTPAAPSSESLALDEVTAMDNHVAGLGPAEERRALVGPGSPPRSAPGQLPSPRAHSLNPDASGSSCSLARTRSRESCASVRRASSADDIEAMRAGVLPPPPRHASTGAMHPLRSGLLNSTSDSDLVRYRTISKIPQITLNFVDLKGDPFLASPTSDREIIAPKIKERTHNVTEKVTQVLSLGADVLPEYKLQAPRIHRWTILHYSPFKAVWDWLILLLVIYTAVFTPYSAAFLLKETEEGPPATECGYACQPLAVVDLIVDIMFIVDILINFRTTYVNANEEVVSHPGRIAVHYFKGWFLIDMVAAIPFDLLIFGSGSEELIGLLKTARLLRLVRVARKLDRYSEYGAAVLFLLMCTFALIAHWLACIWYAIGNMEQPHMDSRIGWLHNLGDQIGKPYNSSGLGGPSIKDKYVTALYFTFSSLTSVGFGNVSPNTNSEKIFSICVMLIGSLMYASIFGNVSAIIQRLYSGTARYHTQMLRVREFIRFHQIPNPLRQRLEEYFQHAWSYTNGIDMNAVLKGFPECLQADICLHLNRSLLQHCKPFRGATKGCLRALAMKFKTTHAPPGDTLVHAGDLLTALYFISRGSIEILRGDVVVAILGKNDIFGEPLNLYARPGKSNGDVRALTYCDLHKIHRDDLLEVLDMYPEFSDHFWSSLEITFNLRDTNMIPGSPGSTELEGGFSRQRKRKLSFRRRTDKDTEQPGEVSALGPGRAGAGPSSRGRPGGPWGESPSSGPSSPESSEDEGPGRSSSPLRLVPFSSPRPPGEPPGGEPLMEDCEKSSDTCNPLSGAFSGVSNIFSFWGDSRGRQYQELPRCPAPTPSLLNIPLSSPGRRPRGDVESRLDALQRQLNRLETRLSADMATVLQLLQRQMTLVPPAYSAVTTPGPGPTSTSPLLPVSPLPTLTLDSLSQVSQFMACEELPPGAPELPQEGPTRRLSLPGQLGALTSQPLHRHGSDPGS
row,SMILES,"hERG current change (%, negative = inhibition) at 10uM [%]"
1,CCOC(=O)c1cnn(-c2ncnc3sc(CC)cc23)c1N,10.9
2,Cc1ccc(-c2noc(C3CCCN(C(=O)C4CCCCC4)C3)n2)o1 (stereo not drawn),-7.48
3,COc1cc(/C=C2/SC(=Nc3ccc(O)cc3)NC2=O)cc(OC)c1O,12.8
4,CC(C)C(=O)N(Cc1ccccc1)S(=O)(=O)c1ccc2c(c1)oc(=O)n2C,-5.06
5,COc1ccc(NC(=S)NNS(=O)(=O)c2ccc3ccccc3c2)c(OC)c1,9.9
6,Cc1cc(C(=O)OCC(=O)Nc2ccc(F)cc2F)c(C)n1C1CC1,9.85
7,Cn1c(SCc2nc3cc(C(=O)O)ccc3c(=O)[nH]2)nnc1C(F)(F)F,2.37
8,Cc1cc(C)cc(NC(=O)COC(=O)c2ccc3c(c2)OCCO3)c1,7.14
9,Cl.c1coc(Cn2nnnc2CN2CCN(C3CCCC3)CC2)c1,-20
10,O=C(O)CC(C(=O)Nc1ccc(Cl)cc1)N1CCCCCC1 (stereo not drawn),19.9
11,CCOc1ccc(C(=O)NCC(=O)NNC(=O)CN(C)S(=O)(=O)c2ccc(Cl)cc2)cc1,14.8
12,OC[C@H]1O[C@H](OC[C@H]2OC(O)[C@H](O)[C@@H](O)[C@@H]2O)[C@H](O)[C@@H](O)[C@@H]1O (stereo partly drawn),12.9
13,O=C(CCC1CCCN(C(=O)c2ccc3c(c2)OCO3)C1)NCc1ccc(F)c(F)c1 (stereo not drawn),-8.73
14,O=C(Nc1nnc(C2CC2)s1)C1CC(=O)N(c2ccc3c(c2)OCCO3)C1 (stereo not drawn),-2.13
15,CC(C)Oc1ccc(S(=O)(=O)N2CCCCC2)cc1NC(=O)C1CCCC1,-15
16,C=C(C)CSc1nc2c(c(=O)[nH]c(=O)n2C)n1Cc1ccccc1,-12.3
17,CC(C)(SC(=S)N1CCOCC1)C(=O)O,8.01
18,CCOc1ccc(NC(=O)CN(C)C(=O)CCc2ccccc2Cl)cc1OCC,-25.2
19,O=C(COC(=O)c1ccccn1)NCc1ccccc1,2.45
20,Cn1c(CNC(=O)c2ccco2)nnc1SCC(=O)Nc1cccc(F)c1,4.12
21,CC(C)(CO)NCc1cccc(OCc2ccc(Cl)cc2)c1,-30.8
22,COc1ccccc1/C=C1/C(=O)ON=C1C,12.5

row,SMILES,"hERG current change (%, negative = inhibition) at 10uM [%]"
1,O=C(Nc1cccnc1)C1=NN(C2CCS(=O)(=O)C2)C(=O)CC1 (stereo not drawn),21.2
2,COc1cccc(-n2c(CN3CCN(c4ccc(C)cc4)C(C)C3)nc3ccc([N+](=O)[O-])cc3c2=O)c1 (stereo not drawn),-6.99
3,CCC(=NCCc1c(C)[nH]c2ccc(C)cc12)C1=C(O)CC(c2ccccc2)CC1=O (stereo not drawn),3.02
4,COc1ccc(CNC(=O)C(=O)NCC2OCCN2S(=O)(=O)c2ccccc2)cc1 (stereo not drawn),1.17
5,COc1ccc(OCC(=O)Nc2ccc(N3CCCCC3)cc2)cc1,13.9
6,CC(/C=C/c1cccc([N+](=O)[O-])c1)=N\NC(=O)c1ccncc1,-46.5
7,COC(=O)Cc1cc(=O)n2[nH]c(C)c(-c3ccccc3)c2n1,9.6
8,CCC1Oc2ccccc2N(CC(=O)NCCC2=CCCCC2)C1=O (stereo not drawn),3.64
9,COc1ccc(C2(C(=O)N3CCOCC3)CCOCC2)cc1OC,22.5
10,CCCN1C(=O)/C(=N\OCC(=O)NCC(F)(F)F)c2ccccc21,-2.52
11,Cc1nn(-c2ccccc2)c(C)c1CN,-5.52
12,C=CC[N+](C)(C)CC(=O)OCc1ccccc1.[Br-],1.34
13,Cc1cc(C)nc(SCc2cn3cc(Cl)ccc3n2)n1,-15.2
14,COc1ccc2c(c1)cc1c(=O)n(CC(=O)NCCCOC(C)C)nc(C)n12,19.1
15,CN(C)c1cc(N)c2ccccc2n1.O=C(O)c1cc(=O)[nH]c(=O)[nH]1,-18.5
16,CCOCCCNC(=O)/C=C1\Sc2ccccc2N(Cc2ccccc2F)C1=O,-9.66
17,CCCCN1CCCCC1C(=O)Nc1c(C)cccc1C.Cl (stereo not drawn),-1.6
18,CSc1ccccc1NC(=S)Nc1cc(C)cc(C)c1,12.2
19,CCN(c1ccc(C)cc1C)S(=O)(=O)c1nnc(NC(=O)C(C)C)s1,18.2
20,Cc1cc(C)cc(NC(=O)C2CCCN2S(=O)(=O)c2cccc3cccnc23)c1 (stereo not drawn),-4.26
21,COc1ccc(C(=O)N2CCC(C(=O)c3ccc(F)cc3)CC2)cc1,-70.2
22,O=C(N/N=C/c1cccs1)/C(=C/c1ccccc1)NC(=O)c1ccccc1,-24.1

row,SMILES,"hERG current change (%, negative = inhibition) at 10uM [%]"
1,CCOc1ccccc1NC(=O)CSc1nnc(-c2ccccn2)n1Cc1ccco1,-67.3
2,Cc1cc(C)c(S(=O)(=O)c2ccccc2)c(N(C)C)n1,4.06
3,CCC(/C=C1\Sc2ccc(OC)cc2N1CCO)=C\c1sc2ccc(OC)cc2[n+]1CCO.[Cl-],-72.9
4,O=C(N/N=C/c1ccccn1)c1ccc(N/N=C/c2ccccn2)cc1.O=S(=O)(O)O,12.2
5,O=C1/C(=C/c2ccccc2)SC(=S)N1CC(=O)N1CCCCC1c1cccnc1 (stereo not drawn),-10.9
6,O=C1Cc2ccccc2C(=O)N1Cc1ccccc1,1.63
7,COc1ccc(S(=O)(=O)NCC(c2ccco2)N2CCOCC2)cc1 (stereo not drawn),-19.1
8,O=C(CSc1ncccn1)Nc1ccc(N2CCOCC2)cc1,-11.8
9,Cn1c(C(=O)N2CCC(C(=O)N3CCN(Cc4ccc5c(c4)OCO5)CC3)CC2)cc2sccc21,-60.6
10,CN(C)C(=O)CSc1nnc(CCN)o1.Cl,-3
11,CN(CCN1CCOCC1)C(=O)c1cc(COc2ccc(F)c(F)c2)on1,-9.71
12,O=C(/C=C/c1ccccc1)Nn1cnc2ccccc2c1=O,2.91
13,CC(C)C[C@H](NC(=O)N1CCn2c1nc1ccccc12)C(=O)NC1CCCCC1,4.85
14,COc1cc(Cl)ccc1OCc1cc(C(=O)N2CCCC(OC)C2)no1 (stereo not drawn),-6.56
15,COc1ccc(NC(=O)c2sc3ncn(CC(=O)N4CCCCC4)c(=O)c3c2C)cc1OC,15
16,CC(C)NC(=O)COc1coc(CN2CCN(c3ccccc3)CC2)cc1=O,-1.14
17,CC(C)(C)C1C/C(=C/c2ccccn2)C(=O)/C(=C/c2ccccn2)C1 (stereo not drawn),-23.8
18,CCn1c(SCC(=O)c2[nH]c(C)c(C(C)=O)c2C)nnc1-c1ccncc1,-9.36
19,O=[N+]([O-])c1cn(Cc2ccc(Cl)cc2)cn1,-1.82
20,Cc1ccc2nc(Cl)c(/C=N/NC(=O)[C@H]3C[C@@H]3c3ccccc3)cc2c1,19.5
21,CCOC(=O)c1sc(=S)n(-c2ccccc2)c1SC,1.41
22,COc1cc2c(cc1OC)-c1cc(Nc3ccc(N(C)C)cc3)nc(=O)n1CC2,-27.6

row,SMILES,"hERG current change (%, negative = inhibition) at 10uM [%]"
1,Nn1c(SCC(=O)Nc2nccs2)nnc1-c1ccccn1,0.594
2,COc1ccc(S(=O)(=O)Nc2cccnc2)cc1,14.3
3,CSc1ccccc1NC(=O)CN(Cc1ccccc1)S(C)(=O)=O,4.1
4,CCOC(=O)CSc1nsc(SCC(=O)OCC)c1C#N,-55.7
5,CC(/C=N/NC(=O)c1ccncc1)=C\c1ccc(C(C)C)cc1,5.1
6,CC1(c2ccccc2Cl)NC(=O)N(CC(=O)N2c3ccccc3NC(=O)C2(C)C)C1=O (stereo not drawn),-3.87
7,COc1ccc(CCNC(=O)c2cc3c(=O)n4ccccc4nc3n(C3CCCCC3)c2=N)cc1,-81.3
8,CN(CCCC(=O)Nc1ccc(Br)cc1F)S(=O)(=O)c1ccccc1,-16.8
9,CCCCCCSc1ccc([C@H]2N[C@@](C)(C(=O)OC)[C@H]3C(=O)N(CC)C(=O)[C@@H]23)cc1.O=C(O)C(F)(F)F,-2.75
10,O=C(O)c1ccccc1-c1ccccc1C(=O)NNc1ccccc1,2.41
11,O=C(c1ccc(OC2CCN(C(=O)C3CC3)CC2)cc1)N(CCO)Cc1ccccc1,-7.4
12,O=C1c2ccccc2C(=O)N1CCCc1c[nH]c2ccccc12,-18
13,COCCN1Cc2cccc(C(=O)Nc3ccc(-c4nc5ccccc5[nH]4)cc3)c2C1=O,3.23
14,O=C(O)c1[nH]c2ccccc2c1C(c1cccc(O)c1)c1c(C(=O)O)[nH]c2ccccc12,24.4
15,FC(F)(F)c1cnc(-n2cc[nH]c2=S)c(Cl)c1,12.1
16,O=C(CCCOc1ccc(Cl)cc1)N1CCCCC1,-8.73
17,CCOC(=O)c1ccc(NC(=S)N(CCCN(CC)CC)Cc2ccco2)cc1,-76.7
18,O=C(Nc1ccc(-c2nc3c(ccc4ccccc43)o2)cc1)c1ccco1,2.22
19,COc1ccc2nc(-c3cccc(N)c3)[nH]c2c1,0.715
20,CC(=Nc1ccc2c(c1)CCC2)c1c(O)n(C)c(=O)n(C)c1=O,-3.93
21,Cc1nc(P(=O)(c2ccccc2)c2ccccc2)c(N2CCOCC2)o1,16.7
